Measurements taken from US20230287391A1, “KRAB FUSION REPRESSORS AND METHODS AND COMPOSITIONS FOR REPRESSING GENE EXPRESSION” (THE GOVERNING COUNCIL OF THE UNIVERSITY OF TORONTO, priority 2020, published 2023).

Test system: TetO array downstream of an EGFP expression cassette integrated in the AAVS1 locus
Assay: Inducible repression system (ABI-dCas9 / KRAB-PYL1) in K562 reporter cells
Settings: 100 μM abscisic acid, 5 and 14 days; compared to KOX1-PYL1
Procedure: The performance of the ZIM3 KRAB repressor was tested in an inducible repression system as described in [14]. K562 reporter cells were transduced with ABI-dCas9 and a single gRNA targeting the TetO array downstream of an EGFP expression cassette integrated in the AAVS1 locus. These cells were then infected at high multiplicity of infection with lentivirus containing either ZIM3 or KOX1 KRAB domains fused to PYL1. After two rounds of selection, cells were treated with 100 μM of abscisic acid and EGFP levels after 5 and 14 days of recruitment were measured by flow cytometry (FIG. 7). […] Additional methods are as described in Example 4.

Substance: ZIM3 KRAB-PYL1: ZIM3 KRAB domain fused to PYL1 (SEQ ID NO: 16), recruited to ABI1-dCas9 by abscisic acid
- EGFP silencing: superior silencing
